# Measurements from the supplement of paper PMC8674133.
# Recombinant human monoclonal antibodies (heavy:light variable regions). ELISA EC50 on the named antigen, from 10 µg/ml down; IC50 / IC90 against spike pseudovirus on 293T-ACE2 cells, 48 h; lower = stronger. Calls: IC50 above 1,000 ng/ml = non-neutralizing; EC50 above 2,000 ng/ml = non-binder. The source prints 1000 for neutralization that was not reached; it is given as >1000 ng/ml. A few antibodies were first reported in earlier work of the same group.
# B1: C1317 (protein)
# chain 1: EVQLVQSGAEVKKPGESLKISCKGSGYSFTSCWIGWVRQMPGKGLEWMGIIYPGDSDTRYSPSFQGQVTISADRSISTAYLEWSSLKASDTAMYYCARSETYVIPPDYWGQGTLVTVSS
# chain 2: QSVLTQPPSASGTPGQRVTISCSGSSSNIGSNAVNWYQQLPGTAPKLLIYNNDERPSGVPDRFSGSKSGTSASLAIGGLQSEDEADYSCAAWDDSLNGWVFGGGTKLTVL
# B2: C1320 (protein)
# chain 1: EVQLVESGGGLVQPGRSLRLSCAASGFTFDDYAMHWVRQAPGKGLEWVSGISWNSGIIGYADSVKGRFTISRDNAKNSLYLQMNSLRAEDTALYYCAKDKIHSSWYGEEAGDFDYWGQGTLVTVSS
# chain 2: QSALTQPASVSASPGQSITISCTGTSSDVGGYNFVSWYQQHPGKAPKLMIYEVTNRPSGVSNRFSGSKSGNTASLTISGLQAEDEADYYCSSYTSSSAVLFGGGTKLTVL
# B3: C2464 (protein)
# chain 1: VQLVESGGGVVQPGRSLRLSCAASGFTFSIYPLHWVRQTPGTGLEWVAAISFDGTHKHYRDSVKGRFTISRDNSKNTLYLQMDSLRAEDTAVYYCVSLITMIRGVPDCWGQGTLVTVSS
# chain 2: DIQLTQSPSSLSASVGDRLTITCRTSQNISNYLNWYQQKPGRAPKLLIYAASSLQSGVPSRFSASGSGTGFTLSINNLQPEDFATYFCQQSHSIPITFGQGTRLEIK
# B4: C1321 (protein)
# chain 1: EVQLVESGGGLVQPGGSLRLSCAASGIIVSSNYMSWVRQAPGKGLEWVSIIYSGGSTFYADSVKGRFTISRDNSKNTLYLQMNSLRAEDTAVYYCARDRGGFIDYWGQGTLVTVSS
# chain 2: DIQMTQSPSSLSASVGDRVTITCRASQGISNYLAWYQQKPGKVPKLLIYAASTLQSGVPSRFSGSGSGTDFTLTISSLQPEDVATYYCQKYNSAPPWTFGQGTKVEIK
# B5: C1322 (protein)
# chain 1: EVQLVESGGGLVQPGGSLRLSCAASGFTFSSYDMHWVRQSTGKGLEWVAAIGTAGDTYYPDSVKGRFTISRENAKKSLYLQMHSLRAGDTAVYYCARDVGGYWYFDLWGRGTLVTVSS
# chain 2: DIQLTQSPSSLSASLGDRVTITCRASQTIFSYLNWYQQKPGKAPKLLIYAASSLQSGVPSRFGGSGSGTDFTLTISSLQPEDFATYYCQQSYSTPPITFGQGTRLEIK
# B6: C1324 (protein)
# chain 1: EVQLVESGGGLVQPGGSLRLSCAASGFAFSTYDMHWVRQATGKGLEWVSAIGTSGDTYYSDSVKGRFTISREDAKNSLYLQMNSLRAGDTAVYYCARGDSWNSYFYVFDVWGQGTTVTVSS
# chain 2: DIQLTQSPSSLSASVGDRVTITCRASQSIGTYLNWYQQKPGKAPKLLIYAASSLQSGVPSRFSGSGSGTDFTLTISSLQPEDFATYSCQQSYSSPPWTFGQGTKVEIK
# B7: C1326 (protein)
# chain 1: EVQLVESGGGLIQPGGSLRLSCAASGLTVSSNYMTWVRQAPGKGLEWVSVIYSGGSTFYADSVKGRFTISRDTSKNTLYLQMNSLRAEDTAVYYCARDLAAAGAFDIWGQGTMVTVSS
# chain 2: DIQMTQSPSSLSASVGDRVTITCRASQGISNSLAWYQQKPGKAPKLLLYAASRLESGVPSRFSGSGSGTDYTLTISSLQPEDFATYYCQQYYSTLPYTFGQGTKLEIK
# B8: C1328 (protein)
# chain 1: EVQLVESGGGLVQPGRSLRLSCAASGFTFDDYAMHWVRQAPGKGLEWVSGISWNSVSIDYADSVKGRFTISRDNAKNSLYLQMNSLRAEDTALYYCAKSARLPGDYFDYWGQGTLVTVSS
# chain 2: SYELTQPPSVSVAPGKTARITCGGDYIGSKSVHWYQQKPGQAPVLVIYDDSDRPSGIPERFSGSNSGNTATLTISRVEAGDEADYYCQVWDSTSNHPGVVFGGGTKLTVL
# B9: C1329 (protein)
# chain 1: EVQLVQSGAEVKKPGESLKISCKGSGYSFTNYWIGWVRQMPGKGLEWMGIIYPGDSDTRYSPSFQGQVTMSADKSINTAYLQWSSLRASDTAMYYCARPVGDYPMRHFDYWGQGTLVTVSS
# chain 2: SYELTQPPSVSVAPGKTARIPCGGNNIGIKSVQWYQQKPGQAPVLVIYGDSGRPSGIPDRFSGSNSGNTATLTISRVEAGDEADYYCQVWDSNSDHYVFGAGTKVTVL
# B10: C1358 (protein)
# chain 1: EVQLVESGGGLVQPGGSLRLSCAASGFTFSDYDMHWVRQAPGKGLEWVSAIGTAGDTYYPDSVKGRFTISRENAKNSLYLQMNSLRAGDTAVYYCARVNYDSSSFYMFFDYWGQGSLVTVSS
# chain 2: DIQLTQSPSSLSASVGDRVTITCRASQSIGSYLNWYQQKPGKAPNLLIYTASSLQSGVPSRFSGSGSGTDFTLIISSLQPEDFATYYCQQSYSFPPYTFGQGTKLEIK
# B11: C1359 (protein)
# chain 1: EVQLVESGGGLIQPGGSLRLSCAASGFTVSSNYMSWVRQAPGKGLEWVSIIYSGGSTFYADSVKGRFTISRDSSKNTLYLQINSLRAEDTAVYYCARDVPRNSGGYWGQGTLVTVSS
# chain 2: IRMTQSPSSLSASVGDRVTITCQASQDISNYLNWYQQKPGKAPKLLIYDASNLETGVPSRFSGSGSGTDFTFTISSLQPEDIATYYCQQYDNLPITFGQGTRLEIK
# B12: C2466 (protein)
# chain 1: EVQLVESGGGLVKPGGSHRLSCAASGFTFSYAWMSWVRQAPGKGLEWVGRIKMKTDGGTADYAAPVKGRFTISRDDSKSTLYLQMNSLKTEDTAVYYCTTTSDYGDYSPVYWGQGTLVTVSS
# chain 2: DIQLTQSPSSLSASVGDRVTITCRASQSIASYLNWYQQKPGKAPKLLIYAASNLQSGVPSSFSGSGSGTHFTLTITSLQPADFAIYYCQQSYSFPLTFGGGTKVEIK
# B13: C1364 (protein)
# chain 1: EVQLVQSGAEVKKPGESLKISCKGSGYSFTSYWIAWVRRMPGKGLEWMGIIYPGDSETRYSPSFQGQVTISADKSISTAYLQWSSLEASDTAMYYCARQYCGGDCPFDYWGQGTLVTVSS
# chain 2: EIVLTQSPGTLSLSPGERATLSCRASQSVSSSYLAWYQQKPGLAPRLLIYDTSNRATGIPDRFSGSGSGTDFTLTISRLEPEDFAVYYCQQYGSSKFTFGPGTKVDIK
# B14: C1369 (protein)
# chain 1: QVQLVQSGAEVKKPGSSVKVSCKASGGTFSSYTISWVRQAPGQGLEWMGRIIPILGITNYAQKFQGRVTITADKSTSTAYMELSSLRSEDTAVYYCARDPRPLVPAAINYGMDVWGQGTTVTVSS
# chain 2: DIVMTQSPLSLPVTPGEPASISCRSSQSLLQSNGNNYLDWYLQKPGQSPQLLIYLGSHRASGVPDRFSGSGSGTDFTLKISRVEAEDVGVYYCMQALQTPPLTFGGGTKVEIK
# B15: C1330 (protein)
# chain 1: QVQLVQSGAEVKKPGASVKVSCKVSGYSLTELSMHWVRQAPGKGLEWMGGFDPEDGETIYAQKFQGRVTMTEDTSTDTAYMELSSLRSEDTAVYYCATVLISMIRGGEYHMNVWGQGTTVTVSS
# chain 2: SYELTQPPSVSVSPGQTARITCSGDAFPNQYAYWYQQQPGQAPVLVIYKDSERPSGIPERISGSSSGTTVTLTINGVRAEDEADYYCQSADSSGVIFGGGTKLTVL
# B16: C1331 (protein)
# chain 1: EVQLVESGGGLVQPGGSLRLSCAASGFTFSTYDMHWVRQVIGKGLEWVSGIGTSGDTYYSDSVKGRFTISRENAKKSVFLQMNSLRAGDTAVYYCARAVDSSSWHSNWYFDLWGRGTLVTVSS
# chain 2: DIVMTQSPDSLAVSLGERATINCKSSQSVLYKSDNKNFLAWYQQKPGQPPKLLIYWASTRESGVPDRFSGSGSGTDFTLTISSLQAEDVAVYYCQQYYTTPMITFGQGTRLEIK
# Biological target: SARS-CoV-2 Wuhan-Hu-1 spike pseudovirus
# Assay: pseudovirus neutralization IC50; higher = weaker neutralization
# Procedure: (§1)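 Single-round luciferase reporter pseudovirus mixed with antibody dilutions and put on 293T-ACE2 cells for 48 h; signal relative to no-antibody wells, four-parameter fit.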
row,Binder,pseudovirus neutralization IC50 [ng/mL]
1,B1,345
2,B2,21.1
3,B3,4.65
4,B4,12.2
5,B5,> 1000
6,B6,> 1000
7,B7,6.72
8,B8,407
9,B9,208
10,B10,> 1000
11,B11,25.6
12,B12,> 1000
13,B13,556
14,B14,1.75
15,B15,481
16,B16,> 1000

# Biological target: SARS-CoV-2 Wuhan-Hu-1 spike pseudovirus
# Assay: pseudovirus neutralization IC90; higher = weaker neutralization
# Procedure: as §1
row,Binder,pseudovirus neutralization IC90 [ng/mL]
1,B1,> 1000
2,B2,149
3,B3,12.5
4,B4,113
5,B5,> 1000
6,B6,> 1000
7,B7,60.6
8,B8,> 1000
9,B9,> 1000
10,B10,> 1000
11,B11,128
12,B12,> 1000
13,B13,> 1000
14,B14,29.2
15,B15,> 1000
16,B16,> 1000

# Biological target: SARS-CoV-2 Wuhan-Hu-1 spike receptor-binding domain
# Assay: ELISA binding EC50; higher = weaker binding; ELISA of recombinant human antibody on coated antigen, from 10 µg/ml in fourfold dilutions; four-parameter fit.
row,Binder,ELISA binding EC50 [ng/mL]
1,B1,2.62
2,B2,1.35
3,B3,1.71
4,B4,1.73
5,B5,1.68
6,B6,2.33
7,B7,2.51
8,B8,2.44
9,B9,1.89
10,B10,2.6
11,B11,2.73
12,B12,1.79
13,B13,1.29
14,B14,1.44
15,B15,3.06
16,B16,2.4
